# Data taken from paper PMC4336329 (PLoS ONE, 2015).
# Among all 310,000 compounds or so, about 2,200 (0.71%) showed an effect of 50% or more. Effects have a minus sign here. The list shows a part of the results.
# Biological target: human ether-à-go-go-related gene (hERG) potassium channel (human, UniProt Q12809)
# Assay: primary screen, population patch clamp on CHO cells stably expressing hERG
# human ether-à-go-go-related gene (hERG) potassium channel, sequence (Q12809 whole entry, looked up): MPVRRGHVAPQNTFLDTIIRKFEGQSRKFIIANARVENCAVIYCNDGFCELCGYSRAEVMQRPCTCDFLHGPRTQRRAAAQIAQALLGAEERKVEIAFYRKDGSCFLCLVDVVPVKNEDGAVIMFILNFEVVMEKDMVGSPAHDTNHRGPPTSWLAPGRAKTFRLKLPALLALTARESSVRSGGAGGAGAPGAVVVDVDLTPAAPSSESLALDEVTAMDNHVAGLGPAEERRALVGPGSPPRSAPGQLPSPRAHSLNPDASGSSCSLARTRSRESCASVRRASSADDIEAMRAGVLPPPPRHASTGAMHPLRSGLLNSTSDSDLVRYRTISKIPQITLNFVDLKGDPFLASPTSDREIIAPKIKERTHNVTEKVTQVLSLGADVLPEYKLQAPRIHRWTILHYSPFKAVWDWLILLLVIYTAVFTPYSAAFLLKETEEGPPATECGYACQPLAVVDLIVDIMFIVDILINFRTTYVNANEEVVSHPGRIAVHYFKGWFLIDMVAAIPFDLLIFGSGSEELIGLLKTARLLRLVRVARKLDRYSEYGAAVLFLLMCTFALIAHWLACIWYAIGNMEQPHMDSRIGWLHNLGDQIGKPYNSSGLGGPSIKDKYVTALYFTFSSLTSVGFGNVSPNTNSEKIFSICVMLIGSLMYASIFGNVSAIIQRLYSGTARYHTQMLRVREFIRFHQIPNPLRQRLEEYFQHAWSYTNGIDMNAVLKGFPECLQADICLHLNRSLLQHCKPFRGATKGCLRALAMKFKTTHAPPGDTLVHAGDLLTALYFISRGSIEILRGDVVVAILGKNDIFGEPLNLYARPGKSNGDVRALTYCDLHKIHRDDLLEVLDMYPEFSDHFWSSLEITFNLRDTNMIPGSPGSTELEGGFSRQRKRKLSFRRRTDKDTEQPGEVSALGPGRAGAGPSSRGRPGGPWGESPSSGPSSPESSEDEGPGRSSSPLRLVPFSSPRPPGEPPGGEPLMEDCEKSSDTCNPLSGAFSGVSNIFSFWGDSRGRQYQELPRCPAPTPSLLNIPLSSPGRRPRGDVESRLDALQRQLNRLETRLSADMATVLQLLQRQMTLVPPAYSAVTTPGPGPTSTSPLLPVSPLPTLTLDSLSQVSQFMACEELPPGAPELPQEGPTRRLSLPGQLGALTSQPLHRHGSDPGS
row,Compound,"hERG current change (%, negative = inhibition) at 1uM"
1,COc1ccc(-c2cc(C(=O)Nc3cc(Br)ccc3O)no2)cc1,10.3%
2,CCN(CC)c1nc2n(c(=O)n1)CCN2CC,6.01%
3,CCOC(=O)CCSc1nc(C(C)(C)C)cc(C(F)(F)F)c1C#N,12%
4,CCOC(=O)CNC(=O)C1COc2ccccc2O1 (centres unmarked),10.4%
5,O=C(O)c1ccc(Cl)c(S(=O)(=O)Nc2ccc3[nH]c(=O)[nH]c3c2)c1,9.72%
6,CCOCCCn1c(=S)[nH]c2cc(C(=O)N3CCN(C4CCCCC4)CC3)ccc2c1=O,10.4%
7,CCOC(=O)CSc1nc2cc(S(=O)(=O)Nc3ccccc3OC)ccc2o1,-3.83%
8,COc1ccc(NC(=O)COC(=O)c2ccc(Br)o2)cc1OC,16.6%
9,COCCn1c(NCc2ccccc2)nc2c1c(=O)[nH]c(=O)n2C,9.98%
10,O=C(O)CC(SCc1ccc(C(=O)O)o1)C(=O)O (centres unmarked),11.8%
11,Cc1coc2c1c(C)cc1oc(=O)c(CC(=O)NCC(=O)NCC(=O)O)c(C)c12,10.4%
12,N#C/C(=C\c1ccc(Oc2ccc(C(F)(F)F)cc2[N+](=O)[O-])cc1)c1nc2ccccc2[nH]1,11%
13,COC(=O)c1ccc(NC(=O)c2nc(S(=O)(=O)Cc3cccc(C)c3)ncc2Cl)cc1,17.2%
14,CCC(C)NC(=O)c1ccc(COc2ccccc2Cl)cc1 (centres unmarked),-7.71%
15,O=C(Cc1ccccc1)NCc1ccccn1,10.4%
16,COc1cccc(N2C(N)=NC(N)=NC2(C)C)c1.Cl,12.7%
17,C/C(=N\NC(=O)c1ccncc1)c1cccs1,5.93%
18,CN(C)c1ccc(NC(=O)/C=C/c2ccccc2Cl)cc1,5.27%
19,N#Cc1ccc(Oc2ccc(C(F)(F)F)cc2NC(=O)c2ccc(F)cc2)cc1,-27.4%

row,Compound,"hERG current change (%, negative = inhibition) at 1uM"
1,O=C(NCCC(=O)N1CCCCC1)c1ccccc1Cl,-22.9%
2,N#Cc1nnn2c1nc(N)c1c(F)cccc12,18.1%
3,CCOc1ccc(N(CC)C(=O)COc2cc(=O)n(C)c3ccccc23)cc1,-6.46%
4,CCNC(=S)Nc1ccc2ncoc2c1,13.5%
5,CCN(CC)C(=O)C(=O)c1cn(CCOc2ccccc2)c2ccccc12,12.5%
6,O=C(N/N=C/c1cccn1-c1ccc([N+](=O)[O-])cc1)C(O)c1ccccc1 (centres unmarked),-0.277%
7,COCCNC(=S)NNc1cccc(C(=O)O)c1,3.81%
8,COc1ccc(NC(=S)NCc2ccc(Cl)cc2)c(OC)c1,18%
9,CC1Cc2ccccc2N1C(=O)CO/N=C/c1ccccc1OC(F)F (centres unmarked),9.05%
10,CCCNc1nc(C)cc(-c2cc(C(=O)NCc3ccccc3)on2)n1,12%
11,CCCC(=O)Nc1ccc(N2CCN(CC)CC2)c(Cl)c1.Cl,-17.9%
12,Cc1cc(C)nc(SCc2cc(=O)c(OC(=O)c3ccc(S(=O)(=O)N4CCCC4)cc3)co2)n1,-0.0435%
13,Cc1noc(C)c1C(=O)Nc1cccc2ncccc12,10.7%
14,Cc1cccc(C(O)(C(=O)NNc2ccc3ccccc3[nH+]2)c2cccc(C)c2)c1.[Cl-],13.3%
15,CC1=CC2=NC(=O)/C(=C\c3ccc(OC(=O)c4ccco4)cc3)C(=N)N2O1,6.29%
16,CCCOC(=O)CSc1nnc(-c2ccc(Cl)cc2Cl)o1,11.4%
17,C[C@@H](C(=O)Nc1ccc2ccccc2c1)[C@@H]1C[C@@]1(C)[C@@H](NC(=O)c1cnccn1)c1ccccc1,5.58%
18,COc1cccc(/C=C/C(=O)OCC(=O)Nc2ccccc2Sc2ccccc2)c1,11.8%
19,CCOC(=O)c1[nH]c2ccc(OC)cc2c1NC(=O)c1ccc(OC)c(OC)c1,-1.13%

row,Compound,"hERG current change (%, negative = inhibition) at 1uM"
1,NC(=O)CNc1ncc(C(F)(F)F)cc1Cl,19.6%
2,Cc1cccc(C)c1-n1c(SCC(=O)N2CC(=O)Nc3ccccc32)nc2ccccc2c1=O,8.07%
3,Clc1ccccc1CSc1nnc(-c2ccncc2)o1,2.5%
4,S=C(Nc1ccc(Cl)cc1)N1CCOCC1,4.65%
5,CC1Nc2ncnc(N3CCc4ccccc4C3)c2N(Cc2ccc(Br)cc2)C1=O.O=C(O)C(F)(F)F (centres unmarked),13.8%
6,COc1cccc(C(=O)N(CN2CCCC2=O)c2cccc(Cl)c2)c1OC,3.75%
7,O=C(c1ccccc1)N1CCN(CC#Cc2ccccc2)CC1,5.2%
8,CC(OC(=O)CSc1ccc([N+](=O)[O-])cc1)C(=O)NCc1ccco1 (centres unmarked),12.6%
9,CC(=O)Nc1ccc(NS(=O)(=O)c2ccccc2)c2ccccc12,17.6%
10,CC1(C)CC(=O)C2=C(C1)NC(=O)NC2c1ccccc1Cl (centres unmarked),14.7%
11,Cn1cccc1Cc1nnc(SCC(=O)Nc2ccc3c(c2)OCO3)n1CCc1ccccc1,4.99%
12,COc1ccccc1C1CCN(Cc2ccc3ccccc3c2)CC1,-6.37%
13,CCN(C(=O)CN1CCN(c2ccccc2)CC1)c1c(N)n(Cc2ccccc2)c(=O)[nH]c1=O,7.07%
14,O=C(c1ccccc1)c1ccc2nc(Nc3ccccc3)c3nncn3c2c1,4.24%
15,O=C1NC(NS(=O)(=O)c2ccc(Cl)cc2)(C(F)(F)F)C(=O)N1CCc1ccccc1 (centres unmarked),14.7%
16,CCCCC(c1nnnn1C1CCCC1)N1CCN(C2CCCC2)CC1.Cl (centres unmarked),-82%
17,CC(C)Cn1nc(NC(=O)c2cccs2)c2cc3ccccc3nc21,12%
18,O=C(NCCc1ccccc1)C1CCCN(S(=O)(=O)c2cnc[nH]2)C1 (centres unmarked),5.03%
